# According to US7592316B2, “Peptides as NS3-serine protease inhibitors of hepatitis C virus” (Schering Corporation, priority 2000, dated 2009):
# *1 amine or outer side, *2 acyl side, *3 side chain or, on linkers, in order; H or OH if unused. Where a SMILES comes first, the peptide text is derived from it. [ ]: non-standard residue; d: D form. The star is where a group is joined. ξ: configuration not given here. Pro(3S,4R-methano) = O=C(O)[C@H]1NC[C@@H]2C[C@@H]21; Pro(trans-4-Ph) = O=C(O)[C@@H]1C[C@@H](c2ccccc2)CN1; Pro(4,4-S(CH2)3S) = O=C(O)[C@@H]1CC2(CN1)SCCCS2; Benzoyl(2-COOH) = O=C(O)c1ccccc1C(=O)*; X52 = O=C(C(N[*:1])c1cccc2c1OCO2)[*:2]; X12 = CCC[C@H](N[*:1])C(=O)C(=O)[*:2]; Isobutyloxycarbonyl = CC(C)COC(=O)*; Isopropoxycarbonyl = CC(C)OC(=O)*; X4 = CCCCC(N[*:1])C(=O)C(=O)[*:2]; ξPhg(3-F) = NC(C(=O)O)c1cccc(F)c1; Hyp = O=C(O)[C@@H]1C[C@@H](O)CN1; X2 = CCCC(N[*:1])C(=O)C(=O)[*:2]; Aad = N[C@@H](CCCC(=O)O)C(=O)O; Chg = N[C@H](C(=O)O)C1CCCCC1; Phg = N[C@H](C(=O)O)c1ccccc1; Tle = CC(C)(C)[C@H](N)C(=O)O; ξhPhe = NC(CCc1ccccc1)C(=O)O; ξChg = NC(C(=O)O)C1CCCCC1; ξPhg = NC(C(=O)O)c1ccccc1; Carboxymethyl = O=C(O)C*; X98 = CCC(C(=O)O)C(=O)*; X45 = O=C(OC1CCCC1)*; ξV = CC(C)C(N)C(=O)O; Bn = c1ccc(C*)cc1; OtBu = CC(C)(C)O*; Ms = CS(=O)(=O)*; tBu = CC(C)(C)*
# Target: HCV NS3/NS4A protease (strain 1a) (Hepatitis C virus genotype 1a, UniProt P27958)
# Test: biochemical
# Settings: Compounds prepared by Solid Phase Synthesis, Table 3; read-out: Ki* CLASS
row,Compound,Ki [nM]
1,CCCC(NC(=O)[C@@H]1C[C@@H](OCc2ccccc2)CN1C(=O)C(NC(=O)C(CC)C(=O)O)C1CCCCC1)C(=O)C(=O)NCC(=O)NC(C(=O)O)c1ccccc1 (some centres unmarked) (X98-[ξChg][Hyp](Bn)[X2]G[ξPhg]-OH),1 to 100
2,CCCC(NC(=O)[C@@H]1C[C@@H](OC(C)(C)C)CN1C(=O)[C@@H](NC(=O)[C@@H](NS(C)(=O)=O)C(C)C)C1CCCCC1)C(=O)C(=O)NCC(=O)NC(C(N)=O)c1cccc2c1OCO2 (some centres unmarked) (Ms-V[Chg][Hyp](tBu)[X2]G[X52]-NH2),101 to 1000
3,CCCC(NC(=O)[C@@H]1C[C@@H](OCC(=O)O)CN1C(=O)C(NC(=O)OCC(C)C)C(C)C)C(=O)C(=O)NCC(=O)NC(CCc1ccccc1)C(N)=O (some centres unmarked) (Isobutyloxycarbonyl-[ξV][Hyp](Carboxymethyl)[X2]G[ξhPhe]-NH2),> 1000
4,CCCC(NC(=O)[C@@H]1C[C@@H](OC(C)(C)C)CN1C(=O)[C@@H](NC(=O)c1ccccc1C(=O)O)C1CCCCC1)C(=O)C(=O)NCC(=O)NC(C(N)=O)c1cccc(F)c1 (some centres unmarked) ({Benzoyl(2-COOH)}-[Chg][Hyp](tBu)[X2]G[ξPhg(3-F)]-NH2),101 to 1000
5,CCCC(NC(=O)[C@@H]1C[C@@H](OCc2ccccc2)CN1C(=O)[C@H](CCCC(=O)O)NC(=O)OCC(C)C)C(=O)C(=O)NCC(=O)N[C@H](C(N)=O)c1ccccc1 (some centres unmarked) (Isobutyloxycarbonyl-[Aad][Hyp](Bn)[X2]G[Phg]-NH2),101 to 1000

# Same assay, conditions: HCV protease continuous assay results, Table 1; read-out: Ki* Range
row,Compound,Ki [nM]
1,"CCCCC(NC(=O)[C@@H]1CC2(CN1C(=O)[C@@H](NC(=O)OCC(C)C)C1CCCCC1)SCCCS2)C(=O)C(=O)NCC(=O)NC(C(=O)O)c1ccccc1 (some centres unmarked) [Example 141] (Isobutyloxycarbonyl-[Chg][Pro(4,4-S(CH2)3S)][X4]G[ξPhg]-OH)",1 to 100
2,"CCCC(NC(=O)[C@@H]1CC2(CN1C(=O)[C@@H](NC(=O)OC1CCCC1)C1CCCCC1)SCCCS2)C(=O)C(=O)NCC(=O)NC(C(=O)O)c1ccccc1 (some centres unmarked) [Example 138] (X45-[Chg][Pro(4,4-S(CH2)3S)][X2]G[ξPhg]-OH)",1 to 100
3,"CCCCC(NC(=O)[C@@H]1CC2(CN1C(=O)[C@@H](NC(=O)OCC(C)C)C1CCCCC1)SCCCS2)C(=O)C(=O)NCC(=O)NC(C(=O)OC(C)(C)C)c1ccccc1 (some centres unmarked) [Example 140] (Isobutyloxycarbonyl-[Chg][Pro(4,4-S(CH2)3S)][X4]G[ξPhg]-OtBu)",101 to 1000
4,"CCCCC(NC(=O)[C@@H]1CC2(CN1C(=O)[C@@H](NC(=O)OCC(C)C)C1CCCCC1)SCCCS2)C(=O)C(=O)NCC(=O)NC(C(=O)N(C)C)c1ccccc1 (some centres unmarked) [Example 142] (Isobutyloxycarbonyl-[Chg][Pro(4,4-S(CH2)3S)][X4]G[ξPhg]-NMe2)",1 to 100
5,CCCC(NC(=O)[C@@H]1C[C@@H](c2ccccc2)CN1C(=O)[C@@H](NC(=O)OCC(C)C)C1CCCCC1)C(=O)C(=O)NCC(=O)N[C@H](C(N)=O)c1ccccc1 (stereo partly drawn) [Example 73] (Isobutyloxycarbonyl-[Chg][Pro(trans-4-Ph)][X2]G[Phg]-NH2),101 to 1000

# The remaining lines, values ahead:
row,Ki [nM],Compound
1,> 1000,C=CCOC(=O)CNC(=O)C(=O)C(CCC)NC(=O)[C@@H]1CCCN1C(=O)[C@@H]1Cc2ccccc2CN1C(=O)OC(C)(C)C (some centres unmarked) [Example 43]
2,1 to 100,CCCC(NC(=O)[C@@H]1CC(OC(=O)C(C)(C)C)CN1C(=O)C(NC(=O)OC(C)(C)C)C(C)(C)C)C(=O)C(=O)NCC(=O)NC(C(=O)N(C)C)c1ccccc1 (some centres unmarked) [Example 343]
3,> 1000,CCCC(NC(=O)[C@@H]1C[C@@H](OC(C)(C)C)CN1C(=O)[C@@H](NC(=O)OCC(C)C)C(C)(C)C)C(=O)C(=O)NCC(=O)N[C@H](CO)C1CC1 (some centres unmarked) [Example 310]
4,101 to 1000,CCCC(NC(=O)[C@@H]1CC2(CN1C(=O)C(NC(=O)OC(C)(C)C)C(C)(C)C)SCCCS2)C(=O)C(=O)NCC(=O)NC(CO)CCSC (some centres unmarked) [Example 244]
5,101 to 1000,C=CCCC(NC(=O)[C@@H]1[C@@H]2[C@H](CN1C(=O)[C@H](NC(=O)OC(C)(C)C)C(C)(C)C)C2(C)C)C(=O)C(=O)NCC(=O)OC (some centres unmarked) [Example 299]
6,1 to 100,CCCC(NC(=O)[C@@H]1CC2(CN1C(=O)C(NC(=O)OCC(C)C)C1CCC(F)(F)CC1)SCCCS2)C(=O)C(=O)NCC(=O)NC(C(=O)N(C)C)c1ccccc1 (some centres unmarked) [Example 240]
7,> 1000,C=CCCC(NC(=O)[C@@H]1C[C@@H](OC(C)(C)C)CN1C(=O)[C@@H](NC(=O)OCC(C)C)C(C)(C)C)C(=O)C(=O)NCC(=O)OC (some centres unmarked) [Example 274]

# Same assay, conditions: Table 4; HCV NS3/NS4A protease, spectrophotometric assay, 30° C., pH 6.5; read-out: Ki* Range
row,Compound,Ki [nM]
1,"CCC[C@H](NC(=O)[C@@H]1[C@H]2C[C@H]2CN1C(=O)[C@@H](NC(=O)OC(C)C)C(C)(C)C)C(=O)C(=O)NCC(=O)N[C@H](C(=O)N(C)C)c1ccccc1 (Isopropoxycarbonyl-[Tle][Pro(3S,4R-methano)][X12]G[Phg]-NMe2)",1 to 100

# Same assay, conditions: Table 5; HCV NS3/NS4A protease, 30° C., pH 6.5; read-out: Ki* Range
row,Ki [nM],Compound
1,1 to 100,CCCC(NC(=O)[C@@H]1[C@@H]2[C@H](CN1C(=O)[C@@H](NC(=O)OC(C)(C)C)C(C)(C)C)C2(Cl)Cl)C(=O)C(=O)NCC(=O)NCc1ccccc1 (some centres unmarked)
2,1 to 100,C=CCCC(NC(=O)[C@@H]1[C@@H]2[C@H](CN1C(=O)[C@@H](NC(=O)OC(C)(C)C)C1CCCCC1)C2(C)C)C(=O)C(=O)NCCC(=O)OC1(C)CC1 (some centres unmarked)
3,101 to 1000,COCC(NC(=O)[C@@H]1[C@@H]2[C@H](CN1C(=O)[C@@H](NC(=O)OC(C)(C)C)C(C)(C)C)C2(C)C)C(=O)C(=O)NCCC(=O)OC(C)(C)C (some centres unmarked)
4,> 1000,C=CCCNC(=O)C(=O)C(CC)NC(=O)[C@@H]1[C@@H]2[C@H](CN1C(=O)[C@@H](NC(=O)OC(C)(C)C)C1CCCCC1)C2(C)C (some centres unmarked)

# Same assay, conditions: Table 5; HCV NS3/NS4A protease, spectrophotometric assay, 30° C., pH 6.5; read-out: Ki* Range
row,Ki [nM],Compound
1,1 to 100,CC(C)(C)OC(=O)N[C@H](C(=O)N1C[C@@H]2[C@H]([C@H]1C(=O)NC(CC1CC1)C(=O)C(N)=O)C2(Cl)Cl)C1CCCCC1 (some centres unmarked)
